These results are taken from article PMC9529947.

Sequences of proteins named here, by UniProt entry; tags and fusion partners are left off.
UniProt Q62159: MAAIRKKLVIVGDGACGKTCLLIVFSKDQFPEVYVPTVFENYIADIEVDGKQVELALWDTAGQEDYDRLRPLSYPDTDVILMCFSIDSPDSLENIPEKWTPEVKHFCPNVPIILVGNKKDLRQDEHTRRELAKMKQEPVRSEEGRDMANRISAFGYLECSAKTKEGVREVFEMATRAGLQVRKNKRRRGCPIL
UniProt Q9QUI0: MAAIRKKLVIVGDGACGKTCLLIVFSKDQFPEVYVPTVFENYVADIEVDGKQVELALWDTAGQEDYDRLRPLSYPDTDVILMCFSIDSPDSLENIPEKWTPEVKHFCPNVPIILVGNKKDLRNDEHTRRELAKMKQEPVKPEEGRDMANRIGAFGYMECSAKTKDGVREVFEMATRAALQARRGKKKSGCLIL

The target in experiment [1] is T1, RhoGDIα (endogenous, mouse brain) (mouse (endogenous in brain)) (UniProt Q99PT1).
T1 sequence: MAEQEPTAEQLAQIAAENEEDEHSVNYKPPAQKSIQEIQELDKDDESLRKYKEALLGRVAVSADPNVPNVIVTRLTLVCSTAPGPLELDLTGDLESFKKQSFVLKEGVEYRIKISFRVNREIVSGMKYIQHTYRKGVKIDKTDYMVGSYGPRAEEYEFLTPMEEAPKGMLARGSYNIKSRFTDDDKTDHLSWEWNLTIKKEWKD
The experiment in a line: co-IP; agarose-conjugated mouse anti-RhoGDIα antibody, overnight at +4 °C, on Lis1fl/+ or Lis1fl/- mouse brain lysate; CelLyticM with 20 mM NEM; blots for RhoC, RhoA, Rac3.

The target of experiment [2] is T2, RhoGDIα (endogenous, 293-CDC42 cells) (human (endogenous in HEK293T-derived 293-CDC42 cells)) (UniProt P52565).
T2 sequence: T1 sequence with I71V, R74G, T81S, M162V, N176S, E201D
The experiment in a line: proximity ligation; Duolink In Situ Orange kit on fixed, permeabilised 293-CDC42 cells, control or LNX1-overexpressing; probes RhoC/RhoGDIα or HA/RhoGDIα.

Experiment [3] has as its target T3, LNX1-Myc-FLAG (mouse (from the printed accession)) (UniProt O70263).
T3 sequence: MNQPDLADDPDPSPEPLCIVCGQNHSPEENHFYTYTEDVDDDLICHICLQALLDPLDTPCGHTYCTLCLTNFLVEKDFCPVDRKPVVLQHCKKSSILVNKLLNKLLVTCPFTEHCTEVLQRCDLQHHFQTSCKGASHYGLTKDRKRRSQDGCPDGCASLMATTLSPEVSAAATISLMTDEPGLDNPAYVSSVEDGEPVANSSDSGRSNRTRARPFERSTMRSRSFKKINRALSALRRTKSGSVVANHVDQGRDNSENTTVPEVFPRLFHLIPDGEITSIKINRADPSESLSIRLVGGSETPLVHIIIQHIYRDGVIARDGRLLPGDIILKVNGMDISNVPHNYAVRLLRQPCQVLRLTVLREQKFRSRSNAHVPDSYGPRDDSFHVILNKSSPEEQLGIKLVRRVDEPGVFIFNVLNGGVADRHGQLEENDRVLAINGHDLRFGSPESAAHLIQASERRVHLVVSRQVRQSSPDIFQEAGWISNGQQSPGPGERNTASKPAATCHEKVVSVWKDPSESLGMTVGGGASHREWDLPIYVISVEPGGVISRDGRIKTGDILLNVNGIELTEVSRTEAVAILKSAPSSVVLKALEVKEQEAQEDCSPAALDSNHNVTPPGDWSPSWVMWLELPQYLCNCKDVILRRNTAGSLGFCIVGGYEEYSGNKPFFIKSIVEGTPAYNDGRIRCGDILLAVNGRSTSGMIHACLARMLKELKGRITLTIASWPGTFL
The experiment in a line: co-IP; EZview Red Anti-FLAG M2 Affinity Gel on lysates of co-transfected HEK293T cells; FLAG-tagged protein as bait, EGFP-tagged protein detected by blot.

For experiment [4], the target named is T4, FLAG-ARHGDIA (human (from the printed accession)) (UniProt P52565).
T4 sequence: T1 sequence with I71V, R74G, T81S, M162V, N176S, E201D
The experiment is described as above.

Numbering of substitutions follows the chain as printed. No constants are given. Whether binding was seen depends on the method and setting. Binding seen in cells or lysates may run through a third protein. Some results given as binding are weak or reduced against the parent protein; the word gives no strength. For some assays here: Sequences can lack the tags named with a protein.

In the case of “RhoC (endogenous, mouse brain) (from UniProt Q62159 1-193)”, the binding entry in experiment [1] is “binds”.

Regarding “HA-tagged Cdc42 (293-CDC42 cells) (from UniProt P60766-2 1-191)”, in experiment [2], the binding result is “binds”.

Turning to “RhoA (endogenous, mouse brain) (from UniProt Q9QUI0 1-193)”, the binding entry in experiment [1] is given as “binds”.

B1: EGFP-LIS1 (protein, UniProt P63005-1 1-410)
chain: MVLSQRQRDELNRAIADYLRSNGYEEAYSVFKKEAELDMNEELDKKYAGLLEKKWTSVIRLQKKVMELESKLNEAKEEFTSGGPLGQKRDPKEWIPRPPEKYALSGHRSPVTRVIFHPVFSVMVSASEDATIKVWDYETGDFERTLKGHTDSVQDISFDHSGKLLASCSADMTIKLWDFQGFECIRTMHGHDHNVSSVAIMPNGDHIVSASRDKTIKMWEVQTGYCVKTFTGHREWVRMVRPNQDGTLIASCSNDQTVRVWVVATKECKAELREHEHVVECISWAPESSYSSISEATGSETKKSGKPGPFLLSGSRDKTIKMWDVSTGMCLMTLVGHDNWVRGVLFHSGGKFILSCADDKTLRVWDYKNKRCMKTLNAHEHFVTSLDFHKTAPYVVTGSVDQTVKVWECR
For the molecule B1, the binding result in experiment [3] is reported as “binds”; in experiment [4] it was “no binding”.
